Experimental data: the BET-seq Pho4 binding data (Le et al. 2018)
This is one part of the list. The energies were worked out here from pooled read counts, against the library average; single values are noisy.

What follows are sequences tested against T1, Pho4 (S. cerevisiae) (UniProt P07270) (assay: relative binding free energy (BET-seq); higher = weaker binding). Conditions: reference: library average.
T1 sequence: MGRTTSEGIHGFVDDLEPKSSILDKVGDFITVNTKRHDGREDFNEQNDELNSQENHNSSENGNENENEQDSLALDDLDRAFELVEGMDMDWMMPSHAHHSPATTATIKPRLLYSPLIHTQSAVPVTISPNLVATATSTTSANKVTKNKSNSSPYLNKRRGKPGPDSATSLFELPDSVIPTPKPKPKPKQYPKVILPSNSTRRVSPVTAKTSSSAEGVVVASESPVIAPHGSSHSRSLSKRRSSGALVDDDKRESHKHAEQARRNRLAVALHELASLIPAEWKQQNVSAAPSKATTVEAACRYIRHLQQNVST

For TAGGGCACGTGTTTCA, which “relative binding free energy” value is on record?
The value was -0.22 kcal/mol.

Which “relative binding free energy” value does the source give for ATCTTCACGTGATGGA here?
The value was 0.37 kcal/mol.

For TTGTGCACGTGCGGAT, which “relative binding free energy” value is on record?
The value was -0.12 kcal/mol.

Which “relative binding free energy” value does the source give for TCGGACACGTGTGAGT here?
Its value is 0.12 kcal/mol.

How did the “relative binding free energy” value turn out when GGATTCACGTGGATAG was run?
The value was 0.39 kcal/mol.

Which “relative binding free energy” value does the source give for GTAGGCACGTGAACGG here?
Its value is 0.14 kcal/mol.

GTGGGCACGTGCGGAT was tested. Which “relative binding free energy” value did it give?
The value was -0.09 kcal/mol.

AGGGGCACGTGAGTAT was tested. Which “relative binding free energy” value did it give?
Its value is 0.13 kcal/mol.

TACGTCACGTGGTGAA was tested. Which “relative binding free energy” value did it give?
Its value is 0.07 kcal/mol.

With GGGTTCACGTGCAGGG as the sequence, how does the “relative binding free energy” value read?
The value was 0.33 kcal/mol.

AGTGGCACGTGGGAGC was tested. Which “relative binding free energy” value did it give?
Its value is -0.27 kcal/mol.

CTTGACACGTGTTGAG was tested. Which “relative binding free energy” value did it give?
The value was 0.02 kcal/mol.

For AGGGACACGTGGGCAA, which “relative binding free energy” value is on record?
Its value is 0 kcal/mol.

Which “relative binding free energy” value does the source give for TTTAACACGTGGAGCG here?
The value was 0.04 kcal/mol.

Which “relative binding free energy” value does the source give for GGTGACACGTGGGCAT here?
Its value is -0.09 kcal/mol.

For TGACTCACGTGGTCGT, which “relative binding free energy” value is on record?
The value was 0.19 kcal/mol.

For AGTCACACGTGGGTTT, which “relative binding free energy” value is on record?
Its value is 0 kcal/mol.

With GTGAACACGTGGGTTT as the sequence, how does the “relative binding free energy” value read?
The value was -0.01 kcal/mol.

How did the “relative binding free energy” value turn out when CAAATCACGTGGGTTT was run?
Its value is 0.07 kcal/mol.

Which “relative binding free energy” value does the source give for GTTTACACGTGCAGAG here?
Its value is 0.27 kcal/mol.

For CGTTTCACGTGTTTAA, which “relative binding free energy” value is on record?
The value was 0.18 kcal/mol.

For TGAGCCACGTGTGAGT, which “relative binding free energy” value is on record?
Its value is 0.05 kcal/mol.

How did the “relative binding free energy” value turn out when GGGTGCACGTGAAAGC was run?
Its value is 0.24 kcal/mol.

Which “relative binding free energy” value does the source give for ATTCTCACGTGGTGTT here?
The value was 0.19 kcal/mol.

For TGCAGCACGTGGATGT, which “relative binding free energy” value is on record?
The value was -0.07 kcal/mol.

For TGTCTCACGTGAGGAT, which “relative binding free energy” value is on record?
The value was 0.15 kcal/mol.

For ATTAGCACGTGTTCGT, which “relative binding free energy” value is on record?
Its value is -0.05 kcal/mol.

How did the “relative binding free energy” value turn out when TGGGACACGTGAATAT was run?
Its value is 0.24 kcal/mol.

TGGGGCACGTGTACGG was tested. Which “relative binding free energy” value did it give?
The value was -0.1 kcal/mol.

How did the “relative binding free energy” value turn out when AATTTCACGTGTGGAA was run?
The value was 0.27 kcal/mol.

With AGACTCACGTGGGGGG as the sequence, how does the “relative binding free energy” value read?
The value was 0.08 kcal/mol.

Which “relative binding free energy” value does the source give for CAGCTCACGTGGGTTG here?
Its value is 0.04 kcal/mol.

With GGTGTCACGTGTTCTA as the sequence, how does the “relative binding free energy” value read?
Its value is 0.21 kcal/mol.

For CAGGCCACGTGGGGGG, which “relative binding free energy” value is on record?
Its value is -0.33 kcal/mol.

GAAAGCACGTGGTGGT was tested. Which “relative binding free energy” value did it give?
The value was -0.11 kcal/mol.

TGCTACACGTGGCGTG was tested. Which “relative binding free energy” value did it give?
The value was -0.09 kcal/mol.

With GGAGTCACGTGAGTAG as the sequence, how does the “relative binding free energy” value read?
Its value is 0.28 kcal/mol.

Which “relative binding free energy” value does the source give for AAGGGCACGTGTATGC here?
The value was -0.07 kcal/mol.

With GAAATCACGTGTAGTT as the sequence, how does the “relative binding free energy” value read?
Its value is 0.23 kcal/mol.

Which “relative binding free energy” value does the source give for TCTGTCACGTGACGGT here?
Its value is 0.1 kcal/mol.

Which “relative binding free energy” value does the source give for GGAAACACGTGTGCGG here?
The value was 0 kcal/mol.

CTTTTCACGTGGTCGT was tested. Which “relative binding free energy” value did it give?
Its value is 0.15 kcal/mol.

For TGGGGCACGTGTACGC, which “relative binding free energy” value is on record?
Its value is -0.01 kcal/mol.

For GTGGCCACGTGTAAAG, which “relative binding free energy” value is on record?
Its value is 0.09 kcal/mol.

TGTTTCACGTGTGAAT was tested. Which “relative binding free energy” value did it give?
The value was 0.27 kcal/mol.

How did the “relative binding free energy” value turn out when GTTTCCACGTGTAAGG was run?
Its value is 0.09 kcal/mol.

How did the “relative binding free energy” value turn out when TAGGGCACGTGGAATT was run?
The value was -0.06 kcal/mol.

TTTTACACGTGGGCGC was tested. Which “relative binding free energy” value did it give?
The value was 0.04 kcal/mol.

How did the “relative binding free energy” value turn out when TGAGGCACGTGTTTGA was run?
Its value is -0.1 kcal/mol.

Which “relative binding free energy” value does the source give for CGATTCACGTGTTGGG here?
The value was 0.27 kcal/mol.

Which “relative binding free energy” value does the source give for ATACGCACGTGGTGGG here?
Its value is -0.31 kcal/mol.

Which “relative binding free energy” value does the source give for TCGTGCACGTGTAGAT here?
The value was 0.06 kcal/mol.

For TCGGACACGTGGGAGA, which “relative binding free energy” value is on record?
Its value is 0 kcal/mol.

With GCAGACACGTGTGGGC as the sequence, how does the “relative binding free energy” value read?
The value was 0.11 kcal/mol.

For TGCTCCACGTGCGTGG, which “relative binding free energy” value is on record?
Its value is 0 kcal/mol.

TTTCTCACGTGAGTCG was tested. Which “relative binding free energy” value did it give?
The value was 0.46 kcal/mol.

For GGTGACACGTGAGAAT, which “relative binding free energy” value is on record?
The value was 0.38 kcal/mol.

Which “relative binding free energy” value does the source give for GTGGGCACGTGTTGGA here?
The value was -0.01 kcal/mol.

For ATGTGCACGTGGTTAA, which “relative binding free energy” value is on record?
The value was -0.12 kcal/mol.

Which “relative binding free energy” value does the source give for GTTTACACGTGATATT here?
Its value is 0.17 kcal/mol.

How did the “relative binding free energy” value turn out when ATGTTCACGTGTGACG was run?
Its value is 0.38 kcal/mol.

For CGGTTCACGTGATGCG, which “relative binding free energy” value is on record?
Its value is 0.31 kcal/mol.

For TGCATCACGTGGGGTA, which “relative binding free energy” value is on record?
Its value is 0.05 kcal/mol.

Which “relative binding free energy” value does the source give for TATGGCACGTGGTGCC here?
The value was -0.25 kcal/mol.

For AGGTGCACGTGGAGAA, which “relative binding free energy” value is on record?
The value was -0.06 kcal/mol.

How did the “relative binding free energy” value turn out when TTATTCACGTGGCTTA was run?
Its value is 0.06 kcal/mol.

Which “relative binding free energy” value does the source give for TGGGTCACGTGACTGT here?
The value was 0.22 kcal/mol.

Which “relative binding free energy” value does the source give for TTTTACACGTGATTTA here?
The value was 0.2 kcal/mol.

TGCTTCACGTGGCGGA was tested. Which “relative binding free energy” value did it give?
The value was 0.31 kcal/mol.

TAAAGCACGTGTGTTC was tested. Which “relative binding free energy” value did it give?
Its value is 0.06 kcal/mol.

Which “relative binding free energy” value does the source give for CGATTCACGTGAATGG here?
Its value is 0.35 kcal/mol.

For CAGAGCACGTGGGTGT, which “relative binding free energy” value is on record?
Its value is -0.27 kcal/mol.

For ATGTGCACGTGGTCTT, which “relative binding free energy” value is on record?
The value was -0.14 kcal/mol.

For TCGAGCACGTGGGGAG, which “relative binding free energy” value is on record?
Its value is -0.23 kcal/mol.

Which “relative binding free energy” value does the source give for TTAGGCACGTGTAGTC here?
Its value is -0.07 kcal/mol.

With CGCTGCACGTGAATGG as the sequence, how does the “relative binding free energy” value read?
Its value is 0.23 kcal/mol.

For TATTTCACGTGAAAGT, which “relative binding free energy” value is on record?
The value was 0.23 kcal/mol.

With GTAAGCACGTGGTTCA as the sequence, how does the “relative binding free energy” value read?
The value was 0.01 kcal/mol.

TTGGTCACGTGCGTGA was tested. Which “relative binding free energy” value did it give?
Its value is -0.11 kcal/mol.

TCTGTCACGTGCCGTG was tested. Which “relative binding free energy” value did it give?
Its value is 0.17 kcal/mol.

Which “relative binding free energy” value does the source give for GGGAACACGTGCTGGG here?
Its value is 0.03 kcal/mol.

For CGAGTCACGTGGTAAG, which “relative binding free energy” value is on record?
The value was 0.06 kcal/mol.

For GGCGTCACGTGTCTGT, which “relative binding free energy” value is on record?
The value was 0.09 kcal/mol.

With TATGGCACGTGGTAGG as the sequence, how does the “relative binding free energy” value read?
Its value is -0.17 kcal/mol.

Which “relative binding free energy” value does the source give for TATTGCACGTGATGCG here?
Its value is -0.02 kcal/mol.

Which “relative binding free energy” value does the source give for ATCGTCACGTGTCGTG here?
The value was 0.06 kcal/mol.

How did the “relative binding free energy” value turn out when TGTTACACGTGTGTCG was run?
Its value is 0.15 kcal/mol.

AGTATCACGTGGTAGA was tested. Which “relative binding free energy” value did it give?
The value was 0.06 kcal/mol.

Which “relative binding free energy” value does the source give for GGTTGCACGTGGAGCC here?
Its value is 0.07 kcal/mol.

How did the “relative binding free energy” value turn out when TAGGGCACGTGTAAGT was run?
The value was 0.05 kcal/mol.

How did the “relative binding free energy” value turn out when ATGTGCACGTGCGGTT was run?
The value was -0.05 kcal/mol.

With TTCTTCACGTGTGATA as the sequence, how does the “relative binding free energy” value read?
Its value is 0.23 kcal/mol.

How did the “relative binding free energy” value turn out when TGGTACACGTGTCTTT was run?
The value was 0.16 kcal/mol.

TGCGTCACGTGTAAGA was tested. Which “relative binding free energy” value did it give?
The value was 0.15 kcal/mol.

With CGGGCCACGTGTTGGC as the sequence, how does the “relative binding free energy” value read?
The value was 0 kcal/mol.

With TTAAGCACGTGAGCGT as the sequence, how does the “relative binding free energy” value read?
Its value is 0.07 kcal/mol.

Which “relative binding free energy” value does the source give for AATGGCACGTGTCATT here?
The value was 0.05 kcal/mol.

With ATGTGCACGTGTTATC as the sequence, how does the “relative binding free energy” value read?
The value was -0.05 kcal/mol.

How did the “relative binding free energy” value turn out when TTGCACACGTGTGGGA was run?
Its value is 0.02 kcal/mol.

With GGTTTCACGTGTTATC as the sequence, how does the “relative binding free energy” value read?
Its value is 0.46 kcal/mol.

With GTGTGCACGTGGGCAC as the sequence, how does the “relative binding free energy” value read?
The value was -0.05 kcal/mol.

For CTGTTCACGTGGTCTA, which “relative binding free energy” value is on record?
Its value is 0.2 kcal/mol.

How did the “relative binding free energy” value turn out when ACGATCACGTGTGGTG was run?
Its value is 0.09 kcal/mol.

Which “relative binding free energy” value does the source give for TCGAGCACGTGTGGTC here?
The value was 0.05 kcal/mol.

How did the “relative binding free energy” value turn out when CGTAGCACGTGAGGTA was run?
Its value is 0.3 kcal/mol.

For TCGTGCACGTGTGGTA, which “relative binding free energy” value is on record?
The value was -0.13 kcal/mol.

For ACGTGCACGTGGTGGC, which “relative binding free energy” value is on record?
Its value is -0.14 kcal/mol.

For AAAGTCACGTGAATTG, which “relative binding free energy” value is on record?
The value was 0.41 kcal/mol.

With ATACTCACGTGTGTAT as the sequence, how does the “relative binding free energy” value read?
The value was 0.2 kcal/mol.

For AGTAACACGTGTGCGG, which “relative binding free energy” value is on record?
Its value is -0.01 kcal/mol.

AGATTCACGTGTAGTA was tested. Which “relative binding free energy” value did it give?
The value was 0.18 kcal/mol.

How did the “relative binding free energy” value turn out when GTTGTCACGTGTGGGG was run?
Its value is 0.15 kcal/mol.

How did the “relative binding free energy” value turn out when TGAGTCACGTGTGCGA was run?
Its value is 0.07 kcal/mol.

How did the “relative binding free energy” value turn out when TTTAACACGTGGGGGA was run?
Its value is -0.14 kcal/mol.

Which “relative binding free energy” value does the source give for TTATACACGTGAGAGA here?
Its value is 0.34 kcal/mol.
